Screen size: about 52,000 compounds; about 1,700 (3.3%) were called active. Cut-off read from the data, not from the text of the source: active = survival mostly below about 52% (no sharp cut-off); inactive = mostly above about 56%. The list shows a part of the results.

The experiment concerns Wild type. In words: growth inhibition of S. aureus wild type versus tarO mutant, primary screen, teichoic acid synthesis inhibitors, RN4220, OD600 (AID 463173). The following applies: S. aureus RN4220 wild type/DeltatarO growth, OD600, 18 h, active compounds read low, screened at 18.75 µg/mL (by protocol).
For `COc1ccc(OC)c(NC(=O)Cn2c(=O)n(-c3cccc(C)c3)c(=O)c3c2c2cc(C)ccc2n3C)c1`, the survival was inactive: 68%. To `Cc1ccc(NC(=O)c2c(NC(=O)c3ccc(F)cc3)sc3c2CCCC3)cc1C` belongs inactive: 80%; to `O=C(c1cc(-c2cccc(Cl)c2)on1)N1CCCCC1`, inactive: 66%; to `COc1ccc(NC(=O)c2cc3c(=O)n(Cc4cccs4)ccc3nc2C)cc1`, inactive: 59%.

For the molecule `CCOC(=O)c1cc(OC(=O)c2cc(OC)c(OC)c(OC)c2)n(-c2ccccc2)n1`, the survival is inactive: 67%.

As for `CCOC(=O)c1c(C)oc2nc(C)nc(N3CCN(c4cc(Cl)ccc4C)CC3)c12`, the survival is inactive: 72%. To `COc1cccc(CNC(=O)CCCn2nc(C)c3sc4ccccc4c3c2=O)c1` belongs inactive: 87%. Regarding `CCOc1ccc(-n2c(SCC(=O)Nc3cc(C)on3)nc3c([nH]c4ccccc43)c2=O)cc1`, the survival is inactive: 69%. For the molecule `CCc1ccccc1N(C)C(=O)Cn1cnc2sc(C)c(S(=O)(=O)N3CCC(C)CC3)c2c1=O`, the survival is inactive: 85%. For `CCOC(=O)c1ccc(NC(=O)CSc2nc(-c3ccc(OC)cc3)cc(C(F)(F)F)c2C#N)cc1` the value was inactive: 130%; for `CCn1cc2nc(SCC(=O)Nc3ccc(OC)c(Cl)c3)n(Cc3ccc(OC)cc3)c(=O)c2n1`, inactive: 147%. For `COc1ccc(C)cc1NC(=O)Cn1c(=O)oc2cc(S(=O)(=O)N3CCCCC3)ccc21` the value was inactive: 94%; for `Cc1ccc(Nc2ccc3cc(S(=O)(=O)N4CCCCC4)ccc3n2)cc1F`, inactive: 55%. To `COc1ccc(-c2cc3nc(C)c(CCC(=O)NCc4ccccc4Cl)c(C)n3n2)c(OC)c1` belongs inactive: 132%; to `O=C(Cc1ccccc1)N(Cc1cccnc1)c1nc2c(Cl)cccc2s1`, inactive: 71%; to `COc1ccc(N(CC(=O)N2CCN(c3ccccc3)CC2)S(=O)(=O)c2c(C)nn(C)c2C)cc1`, inactive: 86%. `COc1cccc(CN(Cc2nnnn2C2CCCCC2)CC2CCCO2)c1` (stereo not drawn): the survival was inactive: 123%. To `CC(=O)c1ccc(NC(=O)c2cn(-c3ccccc3)nc2-c2ccc(Br)cc2)cc1` belongs inactive: 78%; to `O=C(CCC1CCCC1)N1CCc2c([nH]c3ccccc23)C1c1ccc(F)cc1` (stereo not drawn), inactive: 73%; to `N#Cc1nc(COc2ccccc2Cl)oc1NCCc1ccccc1`, inactive: 25%. `CCOc1ccc(NC(=O)NCCN2CCN(c3cccc(C)c3C)CC2)cc1`: the survival is inactive: 75%. For the molecule `CCc1cccc(C)c1NC(=O)C1CCN(S(=O)(=O)c2c(C)noc2/C=C/c2c(C)cc(C)cc2C)CC1`, the survival was inactive: 68%.

Regarding `CCc1nnc(SC(CC)C(=O)Nc2ccc(OC)c(Cl)c2)c2cc3occc3n12` (stereo not drawn), the survival is inactive: 77%. For `CC(C)OCC(O)Cn1c2ccccc2c2ccccc21` (stereo not drawn) the value was inactive: 122%; for `COc1ccccc1NC(=O)c1c(C)cc(C)nc1SCC(=O)Nc1ccc(C)c(C)c1`, inactive: 81%. Regarding `COc1cccc(-n2ccn(CC(=O)NCc3ccc(C)cc3)c(=O)c2=O)c1`, the survival was inactive: 84%. Consider `Cc1ccc(CCNC(=O)CN(c2cc(C)cc(C)c2)S(=O)(=O)c2c(C)noc2C)cc1`, for which the survival was inactive: 127%. In the case of `COc1ccccc1CNC(=O)CCCn1c(=O)c2ccccc2n(Cc2ccc(F)cc2)c1=O`, the survival is inactive: 135%. To `COc1ccccc1Nc1nc(-c2ccc(F)cc2)c2c(n1)-c1ccccc1OC2` belongs inactive: 86%; to `CCOc1ccc(C2CC(=O)NC(NC(=O)c3cccc(Cl)c3)=N2)cc1` (stereo not drawn), inactive: 69%. To `Cc1cc(C)c(NS(=O)(=O)c2ccc3c(c2)CC(C)N3C(=O)C2CCC2)c(C)c1` (stereo not drawn) belongs inactive: 64%; to `Cc1ccc(NC(=O)Nc2cccc(C)n2)cc1`, inactive: 77%; to `CCOC(=O)c1c(C)c(-c2ccccc2)n(CC(=O)Nc2ccc(OCC)cc2)c1C`, inactive: 82%. For `COc1ccc(-c2cn3c(n2)sc2cc(C(=O)Nc4cccc(SC)c4)ccc23)cc1` the value was inactive: 90%; for `CCc1ccc(N(CC)C(=O)CCn2cnc3onc(-c4ccc(F)cc4)c3c2=O)cc1`, inactive: 90%; for `Nc1n[nH]c(N)c1N=Nc1ccc(Cl)cc1`, inactive: 107%. With `Cc1ccc(CSC2=Nc3ccccc3C3=NC(CC(=O)NCc4cccs4)C(=O)N23)c(C)c1` (stereo not drawn), the survival was inactive: 68%. For `CCCCNS(=O)(=O)c1ccc(N2CCCCS2(=O)=O)cc1` the value was inactive: 65%; for `O=C(Nc1ccc2nc(SCCOc3ccccc3)sc2c1)c1ccccc1F`, inactive: 92%; for `COc1ccccc1-c1noc(-c2ccc(N3CCN(C)CC3)c([N+](=O)[O-])c2)n1`, inactive: 110%. To `Cc1ccc(-c2ccc(=O)n(CC(=O)NCCc3ccc(Cl)cc3)n2)cc1` belongs inactive: 73%. Take `Cc1ccc(Cl)cc1N1CCN(C(=O)C2CCN(S(=O)(=O)Cc3ccccc3)CC2)CC1`: the survival was inactive: 79%. `CCCOc1ccc(CNC(=O)c2ccc3c(c2)N(Cc2ccccc2)CCS3)cc1`: the survival is inactive: 138%. For `COC(=O)C(CCSC)NC(=O)Cn1ncc2c([nH]c3ccccc32)c1=O` (stereo not drawn) the value was inactive: 47%; for `COc1cccc2c1cc1c(=O)n(CC(=O)N3CCN(c4cccc(Cl)c4)CC3)nc(C)n12`, inactive: 92%; for `Nc1ncnc2c1ncn2CC(O)CO` (stereo not drawn), inactive: 111%. Turning to `CNC(=O)c1ccccc1Nc1ccc(SC(F)F)cc1`, the survival was inactive: 126%. To `O=C(OCc1cc(=O)n2nc(-c3cccs3)sc2n1)c1ccccc1` belongs inactive: 65%.

With `CC(=O)n1nc(-c2cccnc2)nc1NCc1ccc(F)cc1`, the survival is inactive: 83%. To `O=C(c1ccc(Cl)cc1)N1CCC(c2nc3ccccc3o2)CC1` belongs inactive: 81%. For `CCn1cc(C(=O)OCC(=O)Nc2cc(OC)cc(OC)c2)c(=O)c2ccc(C)nc21`, the survival is inactive: 62%. Regarding `Cc1ccc(CNC(=O)CN2C(=O)CSc3ccc(S(=O)(=O)N(C)C)cc32)cc1`, the survival is inactive: 95%. Turning to `COCCn1c(SC)nnc1-c1ccccc1`, the survival is inactive: 127%. `CCOc1ccc(NC(=O)c2c(NCc3ccc(C)o3)sc3c2CCCCC3)cc1`: the survival was inactive: 74%. Take `Cc1cc(OCC(=O)Nc2c(C(=O)c3ccccc3)oc3ccccc23)cc(C)c1Cl`: the survival is inactive: 68%. To `CCN1CCN(CCCNC(=O)c2cnn(-c3ccccc3Cl)c2C2CCN(C(=O)OC(C)(C)C)CC2)CC1` belongs inactive: 133%; to `CCOC(=O)C1CCCN(c2c(C(=O)c3ccc(OCC)cc3)cnc3ccccc23)C1` (stereo not drawn), active: 0%; to `CC(C)CN(CCCNC(=O)c1cc(-c2cccs2)nc2ccccc12)CC(C)C`, inactive: 61%.

In the case of `Cc1nn(C)c2c1c(-c1ccccc1)cc(=O)n2Cc1ccccc1C#N`, the survival was inactive: 159%.

Regarding `Cc1cc(F)ccc1NC(=O)C1CCN(C(=O)c2cnn(-c3ccccc3)c2-n2cccc2)CC1`, the survival is inactive: 78%. For `O=C(CCC1N=C2c3ccccc3N=C(SCc3cccc(F)c3)N2C1=O)NCCc1ccccc1` (stereo not drawn) the value was inactive: 77%; for `CCCCc1nn2c(=O)cc(COC(=O)c3cccc(Cl)c3)nc2s1`, inactive: 76%. `O=C(c1ccccc1)c1cn(Cc2ccc(F)cc2)c2ccccc2c1=O`: the survival is inactive: 72%. Turning to `Cc1cccc(C)c1NC(=O)Cn1nnc(C(=O)Nc2c(C)cccc2C)c1N`, the survival was inactive: 89%. Regarding `COC(=O)c1ccccc1NC(=O)c1ccc(-c2nc(COc3ccccc3)c(C)o2)cc1`, the survival was inactive: 135%. To `Cc1ccc(CNC(=O)CN2C(=O)CSc3c2c(C)nn3-c2ccccc2)cc1` belongs inactive: 68%.

On to `CN1C(=O)Cc2cc(S(=O)(=O)CCC(=O)Nc3ccc(Cl)c(C(F)(F)F)c3)ccc21`, for which the survival was inactive: 77%.

As for `COCCCn1c(=N)c(C(=O)NCc2cccnc2)cc2c(=O)n3cccc(C)c3nc21`, the survival is inactive: 74%. To `CCOC(=O)c1c(C)[nH]c(CCC(=O)NCc2cccc(C)c2)c1C` belongs inactive: 84%; to `COc1ccc(NC(=O)c2oc3ccccc3c2NC(=O)Cc2coc3cc(C)ccc23)cc1`, inactive: 82%. To `COc1ccc(C)cc1NC(=O)CCNC(=O)Cn1ccc2ccccc2c1=O` belongs inactive: 71%; to `COc1ccc2oc(-c3ccc(C)c(NC(=O)c4ccc5c(c4)OCCO5)c3)nc2c1`, inactive: 79%.

Consider `COc1ccc(C2=C(C)C(=NCCCN3CCN(c4cc(Cl)ccc4C)CC3)NS2(=O)=O)cc1`, for which the survival is inactive: 24%. To `COc1ccc(-n2ncc(C(=O)Nc3ccc4c(c3)OCO4)c2C2CCN(C(=O)OC(C)(C)C)CC2)cc1` belongs inactive: 100%; to `Cc1ccc(NC(=O)Cn2cc(S(=O)(=O)Cc3cccc(Cl)c3)c3ccccc32)cc1C`, inactive: 81%; to `O=C(CCC1N=C2c3ccccc3N=C(SCc3ccccc3F)N2C1=O)NCc1ccccc1` (stereo not drawn), inactive: 73%. To `Cn1c(-c2ccccc2)cnc1NCc1ccccc1O` belongs inactive: 60%; to `N#Cc1nc2c(-c3nc4ccccc4s3)c(N)n(Cc3ccccc3)c2nc1C#N`, inactive: 105%; to `O=C(NCc1ccccc1Br)c1ccc2c(c1)nc1n2CCOC1`, active: -3%. For `CN(C)S(=O)(=O)c1ccc(S(=O)(=O)N(C)CC2COc3ccccc3O2)cc1` (stereo not drawn) the value was inactive: 98%; for `COCCn1nnnc1C(C(C)C)N1CCN(C(=O)c2ccco2)CC1` (stereo not drawn), inactive: 105%; for `COc1cc(-c2nnc(SCCOc3cc(C)cc(C)c3)o2)cc(OC)c1OC`, inactive: 128%. With `COc1ccc(-c2cc3ccc(O)c(CN4CCC(C)CC4)c3oc2=O)cc1OC`, the survival is inactive: 64%. For `Cc1cccc(Cn2cccc2CNS(=O)(=O)c2ccc(Br)cc2)c1`, the survival is inactive: 64%. For `Cc1ccccc1CN1C(=O)c2ccccc2S(=O)(=O)c2ccc(C(=O)OCC3CCCO3)cc21` (stereo not drawn) the value was inactive: 68%. On to `Cc1ccc(C(C)C)c(OC(C)C(=O)NCC2(N(C)C)CCCCC2)c1` (stereo not drawn), for which the survival was inactive: 111%. To `COc1ccc(S(=O)(=O)Nc2cc(S(=O)(=O)c3ccccc3)c(O)c(C)c2C)cc1` belongs inactive: 67%. Consider `Cc1cc(OC(C)C(=O)Nc2sc3c(c2C(N)=O)CCCC3)ccc1Cl` (stereo not drawn), for which the survival was inactive: 82%.

These data come from PubChem BioAssay AID463173 (ICCB-Longwood Screening Facility, Harvard Medical School, 2010).
